No constants are given. Whether binding was seen depends on the method and setting. For some of these results: Binding seen in cells or lysates may run through a third protein. Some entries that bind do so weakly or less than the wild type. For some of these results: Tags and fused reporters may be left off the sequences shown.
Experiments:
[1] = target: T1, GFP-tagged truncated UNC80 (mouse), aa 300–1700 (mouse) (UniProt Q8BLN6); experiment: co-IP; HEK293T co-transfected with NALCN and GFP-tagged UNC80 constructs; IP with anti-GFP, blot anti-NALCN; IP buffer 50 mM Tris-HCl pH 7.4, 150 mM NaCl, 1% NP-40, 1 mM EDTA; 4 °C (Fig. 5a)
T1 sequence: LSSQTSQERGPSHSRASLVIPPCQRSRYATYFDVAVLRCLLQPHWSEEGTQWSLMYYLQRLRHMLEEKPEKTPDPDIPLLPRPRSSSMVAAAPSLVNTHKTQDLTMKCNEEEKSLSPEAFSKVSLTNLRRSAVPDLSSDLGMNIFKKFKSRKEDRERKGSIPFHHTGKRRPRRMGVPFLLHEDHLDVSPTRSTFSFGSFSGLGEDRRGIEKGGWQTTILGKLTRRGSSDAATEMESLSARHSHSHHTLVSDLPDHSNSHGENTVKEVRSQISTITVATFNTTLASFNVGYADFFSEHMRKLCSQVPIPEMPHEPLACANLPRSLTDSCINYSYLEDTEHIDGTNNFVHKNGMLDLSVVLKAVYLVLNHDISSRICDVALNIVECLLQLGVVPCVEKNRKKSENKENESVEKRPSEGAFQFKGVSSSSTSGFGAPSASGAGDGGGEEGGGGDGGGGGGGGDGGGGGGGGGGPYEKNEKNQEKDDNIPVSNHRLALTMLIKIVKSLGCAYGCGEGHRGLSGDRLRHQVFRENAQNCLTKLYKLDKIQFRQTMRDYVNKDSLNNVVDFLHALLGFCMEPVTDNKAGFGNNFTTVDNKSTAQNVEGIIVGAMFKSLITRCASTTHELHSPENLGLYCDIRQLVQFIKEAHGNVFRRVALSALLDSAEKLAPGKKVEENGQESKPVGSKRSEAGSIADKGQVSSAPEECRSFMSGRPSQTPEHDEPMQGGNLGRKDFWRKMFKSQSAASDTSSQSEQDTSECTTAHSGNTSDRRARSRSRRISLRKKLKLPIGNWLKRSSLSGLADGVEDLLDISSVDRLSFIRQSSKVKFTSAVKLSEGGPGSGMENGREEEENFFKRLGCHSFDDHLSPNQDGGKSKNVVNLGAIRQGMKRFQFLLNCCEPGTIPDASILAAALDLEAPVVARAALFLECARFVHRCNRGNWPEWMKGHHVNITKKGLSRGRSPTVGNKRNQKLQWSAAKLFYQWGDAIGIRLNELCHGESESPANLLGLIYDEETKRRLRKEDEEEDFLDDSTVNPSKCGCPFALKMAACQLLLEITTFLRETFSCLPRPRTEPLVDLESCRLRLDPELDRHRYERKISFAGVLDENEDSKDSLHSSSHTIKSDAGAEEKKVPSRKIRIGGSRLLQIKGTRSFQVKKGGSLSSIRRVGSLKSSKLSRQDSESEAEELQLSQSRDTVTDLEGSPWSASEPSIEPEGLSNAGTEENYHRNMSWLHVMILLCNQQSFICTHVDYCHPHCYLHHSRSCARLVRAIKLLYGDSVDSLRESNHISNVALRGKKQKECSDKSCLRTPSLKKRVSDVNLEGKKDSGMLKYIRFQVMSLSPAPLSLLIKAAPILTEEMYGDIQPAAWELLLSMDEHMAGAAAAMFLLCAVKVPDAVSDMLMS

The chains behind the UniProt entries cited, without tags or fusion partners.
UniProt Q8BXR5: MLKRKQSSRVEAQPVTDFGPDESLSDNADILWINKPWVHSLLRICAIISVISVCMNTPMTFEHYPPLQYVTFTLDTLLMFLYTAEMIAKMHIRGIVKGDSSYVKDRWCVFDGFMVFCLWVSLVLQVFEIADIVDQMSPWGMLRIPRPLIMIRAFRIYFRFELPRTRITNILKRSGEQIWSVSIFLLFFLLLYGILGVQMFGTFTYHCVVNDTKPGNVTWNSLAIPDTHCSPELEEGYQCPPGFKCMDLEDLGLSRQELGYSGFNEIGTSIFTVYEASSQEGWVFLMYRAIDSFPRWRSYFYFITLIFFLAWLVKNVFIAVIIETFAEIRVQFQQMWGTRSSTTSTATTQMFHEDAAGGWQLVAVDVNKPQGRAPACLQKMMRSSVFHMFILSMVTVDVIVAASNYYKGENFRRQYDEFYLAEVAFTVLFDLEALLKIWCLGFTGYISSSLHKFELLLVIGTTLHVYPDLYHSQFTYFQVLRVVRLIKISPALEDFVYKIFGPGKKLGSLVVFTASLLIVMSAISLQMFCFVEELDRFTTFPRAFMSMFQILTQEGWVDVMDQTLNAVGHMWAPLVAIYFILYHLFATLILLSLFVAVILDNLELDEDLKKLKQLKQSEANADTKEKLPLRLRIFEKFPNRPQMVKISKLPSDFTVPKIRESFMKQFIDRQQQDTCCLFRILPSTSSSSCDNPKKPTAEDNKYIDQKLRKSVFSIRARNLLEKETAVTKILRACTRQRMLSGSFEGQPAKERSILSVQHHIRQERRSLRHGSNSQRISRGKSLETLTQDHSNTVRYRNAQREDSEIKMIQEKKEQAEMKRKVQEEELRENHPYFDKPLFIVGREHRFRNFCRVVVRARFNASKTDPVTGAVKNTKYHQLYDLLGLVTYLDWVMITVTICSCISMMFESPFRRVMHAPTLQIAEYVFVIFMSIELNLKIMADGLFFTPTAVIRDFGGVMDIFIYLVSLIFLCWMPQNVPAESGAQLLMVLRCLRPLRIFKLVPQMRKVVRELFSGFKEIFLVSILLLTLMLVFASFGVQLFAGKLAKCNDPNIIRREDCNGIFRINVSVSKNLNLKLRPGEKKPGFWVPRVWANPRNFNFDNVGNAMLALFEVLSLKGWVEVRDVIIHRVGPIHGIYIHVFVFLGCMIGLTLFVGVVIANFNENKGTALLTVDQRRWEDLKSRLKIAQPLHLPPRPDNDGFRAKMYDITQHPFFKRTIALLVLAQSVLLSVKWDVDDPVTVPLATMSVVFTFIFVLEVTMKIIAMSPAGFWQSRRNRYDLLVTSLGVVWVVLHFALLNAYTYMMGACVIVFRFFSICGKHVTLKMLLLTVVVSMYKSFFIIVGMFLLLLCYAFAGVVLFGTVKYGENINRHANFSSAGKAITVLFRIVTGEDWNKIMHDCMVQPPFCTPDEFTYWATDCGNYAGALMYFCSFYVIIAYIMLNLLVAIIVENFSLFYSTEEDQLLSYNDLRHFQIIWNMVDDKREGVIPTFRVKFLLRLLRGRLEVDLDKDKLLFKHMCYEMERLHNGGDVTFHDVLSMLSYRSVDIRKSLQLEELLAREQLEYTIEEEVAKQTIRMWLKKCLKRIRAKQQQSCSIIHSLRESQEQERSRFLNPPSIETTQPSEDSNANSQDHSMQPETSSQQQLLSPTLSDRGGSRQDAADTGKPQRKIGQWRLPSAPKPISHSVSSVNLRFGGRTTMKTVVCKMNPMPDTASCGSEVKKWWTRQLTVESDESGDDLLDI
UniProt Q6Q760: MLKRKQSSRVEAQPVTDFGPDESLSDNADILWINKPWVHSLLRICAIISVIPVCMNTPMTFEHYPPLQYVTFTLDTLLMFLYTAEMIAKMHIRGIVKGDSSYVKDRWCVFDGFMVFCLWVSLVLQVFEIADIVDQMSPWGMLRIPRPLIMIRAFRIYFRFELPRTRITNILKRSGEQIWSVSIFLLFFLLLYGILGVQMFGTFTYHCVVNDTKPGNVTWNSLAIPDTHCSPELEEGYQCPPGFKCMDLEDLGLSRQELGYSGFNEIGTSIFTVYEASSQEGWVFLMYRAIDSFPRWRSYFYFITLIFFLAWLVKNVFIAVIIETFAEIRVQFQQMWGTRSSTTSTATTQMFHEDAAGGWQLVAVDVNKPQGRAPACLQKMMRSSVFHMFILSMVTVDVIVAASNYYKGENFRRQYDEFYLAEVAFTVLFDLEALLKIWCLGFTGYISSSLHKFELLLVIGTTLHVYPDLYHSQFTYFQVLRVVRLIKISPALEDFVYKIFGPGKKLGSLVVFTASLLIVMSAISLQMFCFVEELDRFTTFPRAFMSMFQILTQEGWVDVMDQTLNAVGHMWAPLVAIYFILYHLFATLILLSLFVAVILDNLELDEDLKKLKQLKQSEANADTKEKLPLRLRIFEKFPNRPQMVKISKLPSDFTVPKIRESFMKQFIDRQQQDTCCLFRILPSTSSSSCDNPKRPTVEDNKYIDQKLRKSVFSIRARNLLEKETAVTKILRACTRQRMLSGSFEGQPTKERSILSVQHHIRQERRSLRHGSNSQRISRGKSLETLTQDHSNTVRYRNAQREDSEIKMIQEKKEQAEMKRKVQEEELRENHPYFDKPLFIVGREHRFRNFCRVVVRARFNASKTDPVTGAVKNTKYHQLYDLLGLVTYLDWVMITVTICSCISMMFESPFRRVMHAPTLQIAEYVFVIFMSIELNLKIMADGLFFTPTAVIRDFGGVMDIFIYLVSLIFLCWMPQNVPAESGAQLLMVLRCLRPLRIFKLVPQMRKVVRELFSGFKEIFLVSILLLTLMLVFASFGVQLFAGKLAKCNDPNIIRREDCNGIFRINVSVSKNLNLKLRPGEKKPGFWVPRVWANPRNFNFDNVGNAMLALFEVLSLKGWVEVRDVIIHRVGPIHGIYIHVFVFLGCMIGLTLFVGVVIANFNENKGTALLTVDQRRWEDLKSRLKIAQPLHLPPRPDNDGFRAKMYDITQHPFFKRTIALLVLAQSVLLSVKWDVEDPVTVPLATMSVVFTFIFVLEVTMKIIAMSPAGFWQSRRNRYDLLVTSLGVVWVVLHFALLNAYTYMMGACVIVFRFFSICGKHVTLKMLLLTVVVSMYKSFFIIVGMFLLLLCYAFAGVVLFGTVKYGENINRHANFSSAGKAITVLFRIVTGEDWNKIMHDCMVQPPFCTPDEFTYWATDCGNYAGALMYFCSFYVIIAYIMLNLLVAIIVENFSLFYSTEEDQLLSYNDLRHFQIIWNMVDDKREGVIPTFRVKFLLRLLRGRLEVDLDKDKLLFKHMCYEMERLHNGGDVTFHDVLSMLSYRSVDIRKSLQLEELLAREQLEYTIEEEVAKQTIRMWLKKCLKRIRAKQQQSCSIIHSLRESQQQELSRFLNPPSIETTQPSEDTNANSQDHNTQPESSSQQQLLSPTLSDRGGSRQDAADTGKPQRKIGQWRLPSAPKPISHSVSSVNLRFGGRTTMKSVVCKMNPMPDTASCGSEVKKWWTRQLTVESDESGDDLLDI
UniProt Q0KK59: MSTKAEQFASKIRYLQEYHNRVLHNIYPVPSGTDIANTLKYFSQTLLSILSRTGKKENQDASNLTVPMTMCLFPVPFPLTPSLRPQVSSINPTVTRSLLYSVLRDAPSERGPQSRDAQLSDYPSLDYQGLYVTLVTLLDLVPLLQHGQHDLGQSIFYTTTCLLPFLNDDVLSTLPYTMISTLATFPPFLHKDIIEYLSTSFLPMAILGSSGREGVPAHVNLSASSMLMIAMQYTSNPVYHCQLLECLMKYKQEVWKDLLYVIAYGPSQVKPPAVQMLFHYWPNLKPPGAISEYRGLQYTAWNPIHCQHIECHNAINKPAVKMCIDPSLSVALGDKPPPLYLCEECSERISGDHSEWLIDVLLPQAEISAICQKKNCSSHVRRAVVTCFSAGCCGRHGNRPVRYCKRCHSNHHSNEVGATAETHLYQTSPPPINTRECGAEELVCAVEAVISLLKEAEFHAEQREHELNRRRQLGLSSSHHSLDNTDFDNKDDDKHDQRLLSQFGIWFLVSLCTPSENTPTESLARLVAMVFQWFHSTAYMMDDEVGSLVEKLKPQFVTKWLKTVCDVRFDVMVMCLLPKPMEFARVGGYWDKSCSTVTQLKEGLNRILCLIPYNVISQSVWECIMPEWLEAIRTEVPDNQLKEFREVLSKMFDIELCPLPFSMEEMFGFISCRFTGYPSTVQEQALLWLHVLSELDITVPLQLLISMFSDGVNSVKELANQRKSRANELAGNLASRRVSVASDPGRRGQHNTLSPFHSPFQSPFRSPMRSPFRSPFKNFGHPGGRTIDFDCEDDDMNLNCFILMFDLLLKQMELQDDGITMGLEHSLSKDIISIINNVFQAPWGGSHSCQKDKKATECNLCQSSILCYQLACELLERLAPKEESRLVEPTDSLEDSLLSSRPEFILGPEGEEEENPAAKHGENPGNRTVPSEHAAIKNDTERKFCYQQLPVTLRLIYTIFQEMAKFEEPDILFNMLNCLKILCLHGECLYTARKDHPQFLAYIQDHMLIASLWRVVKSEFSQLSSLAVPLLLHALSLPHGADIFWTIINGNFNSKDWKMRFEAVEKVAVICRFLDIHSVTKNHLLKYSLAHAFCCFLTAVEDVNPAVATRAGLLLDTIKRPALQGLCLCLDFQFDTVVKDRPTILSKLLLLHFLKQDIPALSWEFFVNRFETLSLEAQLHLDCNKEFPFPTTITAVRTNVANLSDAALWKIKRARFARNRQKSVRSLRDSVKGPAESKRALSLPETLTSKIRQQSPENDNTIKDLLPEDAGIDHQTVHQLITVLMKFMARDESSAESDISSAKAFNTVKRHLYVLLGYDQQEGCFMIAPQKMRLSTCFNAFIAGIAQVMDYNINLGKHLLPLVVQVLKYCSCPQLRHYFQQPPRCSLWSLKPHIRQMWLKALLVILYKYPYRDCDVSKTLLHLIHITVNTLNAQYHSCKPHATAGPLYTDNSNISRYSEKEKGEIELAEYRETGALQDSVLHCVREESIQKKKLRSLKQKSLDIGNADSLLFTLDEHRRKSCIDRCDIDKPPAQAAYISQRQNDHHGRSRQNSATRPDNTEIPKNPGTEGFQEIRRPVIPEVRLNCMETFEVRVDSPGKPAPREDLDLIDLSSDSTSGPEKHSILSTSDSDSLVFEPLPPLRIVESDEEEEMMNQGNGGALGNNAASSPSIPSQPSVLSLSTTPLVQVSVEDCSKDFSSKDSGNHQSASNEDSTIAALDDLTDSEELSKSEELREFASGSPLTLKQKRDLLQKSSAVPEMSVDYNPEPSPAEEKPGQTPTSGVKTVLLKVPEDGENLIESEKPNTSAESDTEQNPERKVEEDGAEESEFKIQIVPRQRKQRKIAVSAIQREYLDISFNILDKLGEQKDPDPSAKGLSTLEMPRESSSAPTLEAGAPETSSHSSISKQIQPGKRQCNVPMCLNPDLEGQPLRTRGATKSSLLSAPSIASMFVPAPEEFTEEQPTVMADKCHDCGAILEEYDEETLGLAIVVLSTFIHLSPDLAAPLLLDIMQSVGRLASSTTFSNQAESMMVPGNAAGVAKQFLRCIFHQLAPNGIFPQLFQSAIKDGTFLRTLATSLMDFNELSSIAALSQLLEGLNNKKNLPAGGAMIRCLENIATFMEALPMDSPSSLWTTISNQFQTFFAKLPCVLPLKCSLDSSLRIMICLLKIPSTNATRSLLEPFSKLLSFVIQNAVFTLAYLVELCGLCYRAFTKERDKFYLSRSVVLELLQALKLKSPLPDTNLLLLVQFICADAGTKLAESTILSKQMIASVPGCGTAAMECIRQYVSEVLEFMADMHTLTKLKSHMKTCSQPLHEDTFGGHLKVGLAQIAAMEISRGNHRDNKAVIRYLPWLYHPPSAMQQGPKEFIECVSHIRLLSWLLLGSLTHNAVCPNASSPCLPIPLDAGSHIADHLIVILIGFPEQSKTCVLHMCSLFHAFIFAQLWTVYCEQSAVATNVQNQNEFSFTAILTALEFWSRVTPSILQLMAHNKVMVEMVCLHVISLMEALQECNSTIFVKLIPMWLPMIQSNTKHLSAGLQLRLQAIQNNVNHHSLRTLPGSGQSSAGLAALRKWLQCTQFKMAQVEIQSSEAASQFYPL

[2] = target: GFP-tagged UNC80 (mouse) truncated at L2654 (residues 1–2653) (mouse) (UniProt Q8BLN6); experiment: co-IP; HEK293T co-transfected with NALCN or UNC79 and GFP-tagged UNC80 constructs; IP with anti-GFP, blot anti-NALCN or anti-UNC79; RIPA buffer (IP buffer with 0.5% deoxycholate and 0.1% SDS); 4 °C (Fig. 8a-c, f, g)
[3] = target: GFP-tagged full-length UNC80 (mouse) (mouse) (UniProt Q8BLN6); experiment: as above
[4] = target: T2, GFP-tagged UNC80 (mouse) truncated, residues 1–1266 (R1266*) (mouse) (UniProt Q8BLN6); experiment: as above
T2 sequence: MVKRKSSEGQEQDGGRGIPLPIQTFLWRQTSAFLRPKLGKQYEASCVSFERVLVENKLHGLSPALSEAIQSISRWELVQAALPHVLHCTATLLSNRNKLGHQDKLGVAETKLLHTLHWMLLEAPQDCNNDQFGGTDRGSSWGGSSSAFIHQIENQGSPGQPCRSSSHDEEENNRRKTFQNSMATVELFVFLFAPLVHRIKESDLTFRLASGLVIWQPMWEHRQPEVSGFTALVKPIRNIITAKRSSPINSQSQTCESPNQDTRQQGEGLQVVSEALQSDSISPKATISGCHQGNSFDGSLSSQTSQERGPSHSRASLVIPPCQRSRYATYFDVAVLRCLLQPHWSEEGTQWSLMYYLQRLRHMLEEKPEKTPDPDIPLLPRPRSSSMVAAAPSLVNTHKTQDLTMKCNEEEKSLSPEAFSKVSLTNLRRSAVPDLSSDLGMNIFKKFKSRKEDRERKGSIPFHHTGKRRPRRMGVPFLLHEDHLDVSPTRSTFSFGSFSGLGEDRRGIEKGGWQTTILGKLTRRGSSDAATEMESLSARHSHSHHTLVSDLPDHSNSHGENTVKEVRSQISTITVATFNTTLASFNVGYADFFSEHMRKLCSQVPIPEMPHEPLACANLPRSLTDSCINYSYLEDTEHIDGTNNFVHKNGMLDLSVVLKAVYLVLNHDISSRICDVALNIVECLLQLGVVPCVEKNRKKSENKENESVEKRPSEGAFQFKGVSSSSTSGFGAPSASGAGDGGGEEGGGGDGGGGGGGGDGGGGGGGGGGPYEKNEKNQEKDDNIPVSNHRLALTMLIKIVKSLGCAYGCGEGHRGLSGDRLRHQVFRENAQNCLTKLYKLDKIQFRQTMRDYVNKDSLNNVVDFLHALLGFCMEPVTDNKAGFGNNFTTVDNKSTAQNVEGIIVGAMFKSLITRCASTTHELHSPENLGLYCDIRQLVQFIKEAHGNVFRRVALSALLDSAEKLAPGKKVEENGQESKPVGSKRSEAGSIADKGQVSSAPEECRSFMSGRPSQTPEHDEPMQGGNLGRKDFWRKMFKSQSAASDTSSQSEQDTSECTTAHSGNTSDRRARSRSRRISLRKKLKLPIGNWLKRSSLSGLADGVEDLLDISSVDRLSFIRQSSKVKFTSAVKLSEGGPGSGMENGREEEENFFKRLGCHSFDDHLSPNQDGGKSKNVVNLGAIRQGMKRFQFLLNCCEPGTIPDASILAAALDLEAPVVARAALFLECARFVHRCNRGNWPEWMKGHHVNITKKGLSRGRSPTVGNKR

[5] = target: NALCN fused with a GFP-HA-6xHis triple tag (knock-in mouse) (mouse (endogenous, knock-in mouse brain)) (UniProt Q8BXR5); experiment: affinity depletion; adult brain lysate of NALCN-GFP-HA-His knock-in mice (300 mM NaCl, 20 mM HEPES pH 8.0, 1% CHAPS); NALCN depleted with nickel beads, then with agarose-conjugated anti-GFP, 4 °C; lysates before and after depletion blotted for NALCN, UNC79, UNC80

Row | binding [1] | binding [2] | binding [3] | binding [4] | binding [5] | Substance
1 | binds | binds | binds | – | – | NALCN (rat), wild type, non-tagged (from UniProt Q6Q760 1-1738)
2 | – | no binding | binds | no binding | – | UNC79 (mouse), wild type, non-tagged (from UniProt Q0KK59 1-2596)
3 | – | – | – | – | binds | UNC80, endogenous, mouse brain (from UniProt Q8BLN6-1 1-3326)

— PMC7335163
